Data from paper PMC6601512.
These are yes or no findings as the source states them, for the method shown. Some results given as binding are weak or reduced against the parent protein; the word gives no strength.

T1: ERH-2, full length (yeast two-hybrid) (C. elegans) (UniProt Q20057)
T1 sequence: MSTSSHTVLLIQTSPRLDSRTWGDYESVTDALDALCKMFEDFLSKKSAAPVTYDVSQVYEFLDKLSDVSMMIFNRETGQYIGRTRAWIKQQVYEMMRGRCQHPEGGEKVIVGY

T2: TOFU-6, full length (yeast two-hybrid) (C. elegans) (UniProt Q09293)
T2 sequence: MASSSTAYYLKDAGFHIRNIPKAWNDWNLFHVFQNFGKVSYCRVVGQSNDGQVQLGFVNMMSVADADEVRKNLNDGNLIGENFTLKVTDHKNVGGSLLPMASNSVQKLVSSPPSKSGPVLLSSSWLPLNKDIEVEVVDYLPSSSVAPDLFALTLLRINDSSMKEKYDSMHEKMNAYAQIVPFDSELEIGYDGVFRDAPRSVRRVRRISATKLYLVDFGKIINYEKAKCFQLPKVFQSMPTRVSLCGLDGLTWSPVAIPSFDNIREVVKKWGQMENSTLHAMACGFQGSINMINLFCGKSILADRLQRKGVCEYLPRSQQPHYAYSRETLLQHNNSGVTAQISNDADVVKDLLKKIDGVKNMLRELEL


Key:
[1] = biological target: T1, ERH-2, full length (yeast two-hybrid) (C. elegans); assay: two-hybrid; yeast strain PJ69-4a, pGAD and pGBD plasmids; low-stringency (TRP-LEU-HIS-) or high-stringency (TRP-LEU-HIS-ADE-) medium as indicated; both orientations screened
[2] = biological target: T2, TOFU-6, full length (yeast two-hybrid) (C. elegans); assay: as above
[3] = biological target: T1, ERH-2, full length (yeast two-hybrid) (C. elegans); assay: two-hybrid; yeast strain PJ69-4a, pGAD and pGBD plasmids; lower-stringency conditions

Binder | binding [1] | further results
IFE-3, full length (yeast two-hybrid) (protein, UniProt O61955 1-251) MSTSVAENKALSASGDVNASDASVPPELLTRHPLQNRWALWYLKADRNKEWEDCLKMVSLFDTVEDFWSLYNHIQSAGGLNWGSDYYLFKEGIKPMWEDVNNVQGGRWLVVVDKQKLQRRTQLLDHYWLELLMAIVGEQFDEYGDYICGAVVNVRQKGDKVSLWTRDATRDDVNLRIGQVLKQKLSIPDTEILRYEVHKDSSARTSSTVKPRICLPAKDPAPVKEKGPAATTSPSNPGTEATGTSPATPTP | – | binding [2]: binds
ERH-2, full length (yeast two-hybrid) (protein, UniProt Q20057 1-113) MSTSSHTVLLIQTSPRLDSRTWGDYESVTDALDALCKMFEDFLSKKSAAPVTYDVSQVYEFLDKLSDVSMMIFNRETGQYIGRTRAWIKQQVYEMMRGRCQHPEGGEKVIVGY | – | binding [3]: binds

Now from value to binder, other results behind:

binding [1] | Binder | further results
binds | PID-3, full length (yeast two-hybrid) (protein, UniProt O76616 1-307) MVAHQKADFKSKWAMVVTVNNLNDKKRADLREFSEWFIETLRLEGAFIGHYFNYEAAPVTIVETLPGNFDSCTNAYQKIHKEHPQVVLVVHILPQSQSNEYEWMKVLASRYGFVRQGLLYDNCANRFQNVETDQNSVFRNMCQWIYRSGTAIVRNEGNACGILHGKDPKPTFDKVLFNSEDIKDSVFKVLHAEEEPRGADQENMLKISGYPGMLNTFGIAQLLTPYRVNGITITGAQSAVVALENKFQVYQAVQDFNGKKLDRNHKLQVSSLVVSSPAVPLEWPSLKKSKKLVEQVGKPIRLSKVSS | –
binds | TOST-1, full length (yeast two-hybrid) (protein, UniProt Q18490 1-142) MTTAIQYQVIPLADREHSNKVASILENKYKTATNKRITLNERFGVLEKGYTIQATEPETVKNDSDVFFVVHDRNLNSKKEFVENYLAKNPIVNSPEKVFEEEDKENAPTKKAVLKPSSTDEKKLTSSDIYIQEITRSILQSV | –
binds | PID-1, full length (yeast two-hybrid) (protein, UniProt Q19541 1-169) MSAKREFSHITLASTPFKKRIDQNSLKTDSDIEKDTNIAHKCAERFNYNTNLHRKVTLSDRFELAALGYEMKAKPRTIIEKHNDCDEFHFIYRKEKKNDYGTGSPLSAGLSLSNPLPAGRGFLSPAIQNTSNQFTFSGSPRITPQKHTPVSANHKPARSIFDDIPSNIA | –
no binding | PID-1(R61C) (yeast two-hybrid) (protein, UniProt Q19541 1-169) MSAKREFSHITLASTPFKKRIDQNSLKTDSDIEKDTNIAHKCAERFNYNTNLHRKVTLSDCFELAALGYEMKAKPRTIIEKHNDCDEFHFIYRKEKKNDYGTGSPLSAGLSLSNPLPAGRGFLSPAIQNTSNQFTFSGSPRITPQKHTPVSANHKPARSIFDDIPSNIA | –
